Structures are written as SMILES. About 2,200 (0.71%) of roughly 310,000 compounds showed an effect of 50% or more. Effects have a minus sign here. This is one part of the list.

In the assay the target is human ether-à-go-go-related gene (hERG) potassium channel (human, UniProt Q12809). The assay can be described thus: primary screen, population patch clamp on CHO cells stably expressing hERG.
Chain of human ether-à-go-go-related gene (hERG) potassium channel (Q12809 whole entry, looked up): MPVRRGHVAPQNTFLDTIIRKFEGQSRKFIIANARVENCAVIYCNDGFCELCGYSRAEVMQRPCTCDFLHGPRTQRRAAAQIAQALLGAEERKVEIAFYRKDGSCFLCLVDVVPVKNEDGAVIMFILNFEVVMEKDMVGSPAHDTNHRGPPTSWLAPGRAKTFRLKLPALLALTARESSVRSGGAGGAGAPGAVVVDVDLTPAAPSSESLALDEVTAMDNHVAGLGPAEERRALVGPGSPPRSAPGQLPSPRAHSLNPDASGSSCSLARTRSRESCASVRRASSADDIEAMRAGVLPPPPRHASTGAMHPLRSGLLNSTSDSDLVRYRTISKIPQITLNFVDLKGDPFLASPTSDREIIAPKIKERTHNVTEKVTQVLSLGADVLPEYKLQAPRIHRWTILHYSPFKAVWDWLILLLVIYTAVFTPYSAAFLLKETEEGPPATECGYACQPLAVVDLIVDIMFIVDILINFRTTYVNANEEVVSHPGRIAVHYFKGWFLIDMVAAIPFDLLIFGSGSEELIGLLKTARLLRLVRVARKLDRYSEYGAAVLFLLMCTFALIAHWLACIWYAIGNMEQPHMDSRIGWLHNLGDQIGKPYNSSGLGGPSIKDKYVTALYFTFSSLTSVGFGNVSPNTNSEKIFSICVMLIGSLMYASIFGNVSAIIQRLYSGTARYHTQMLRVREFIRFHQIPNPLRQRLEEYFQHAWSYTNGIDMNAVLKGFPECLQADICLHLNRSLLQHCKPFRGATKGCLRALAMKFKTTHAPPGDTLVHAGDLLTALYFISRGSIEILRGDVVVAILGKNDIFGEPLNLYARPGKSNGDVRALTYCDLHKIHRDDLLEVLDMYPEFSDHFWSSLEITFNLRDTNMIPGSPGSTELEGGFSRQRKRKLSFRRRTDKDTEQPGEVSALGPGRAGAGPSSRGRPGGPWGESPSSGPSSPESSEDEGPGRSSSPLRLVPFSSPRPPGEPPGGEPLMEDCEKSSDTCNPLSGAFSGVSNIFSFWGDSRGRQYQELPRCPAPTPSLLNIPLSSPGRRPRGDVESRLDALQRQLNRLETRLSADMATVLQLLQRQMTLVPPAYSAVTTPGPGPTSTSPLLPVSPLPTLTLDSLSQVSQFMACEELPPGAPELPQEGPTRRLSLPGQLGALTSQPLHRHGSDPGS
In the case of `Cc1nc2c(ccc3nc(NC(=O)Cc4cccc5ccccc45)sc32)s1`, the “hERG current change (%, negative = inhibition) at 1uM” value was 19.4%.
Then `Cc1ccc(-c2nc3ccc(Cl)cc3n2OC(=O)N(C)C)cc1`, with 12.7%; and `O=C(CNCc1ccccn1)Nc1cc(C(F)(F)F)ccc1N1CCOCC1.O=C(O)C(=O)O`, with -13.3%; and `COc1ccc(C(=O)COc2ccc(F)cc2)c(O)c1`, with -9.28%.
The value for `Cc1ccc2nc(N3C(=O)C(O)=C(C(=O)c4ccc(C)o4)C3c3cccc(O)c3)sc2c1` (centres unmarked) was 16.8%; that for `CC(=O)Nc1ccc2nc(NC(=O)c3ccco3)sc2c1` was 8.75%.
The value for `Cc1cccc(NC(=O)CSc2nnc(C)n2Cc2ccccc2)c1` was -6.2%; that for `CC(C)OCCCn1c(=NC(=O)c2cccs2)c(C#N)cc2c(=O)n3ccccc3nc21` was -67.1%.
Take `CCOC(=O)c1cnc2nc(SC)nn2c1N`: the “hERG current change (%, negative = inhibition) at 1uM” value came out at 10.7%.
The value for `Cc1ccc(NS(=O)(=O)c2ccc3c(c2)oc(=O)n3C)cc1` was 15.2%; that for `Cc1ccccc1N(C(=O)c1csnn1)C(C(=O)NC(C)(C)C)c1cccs1` (centres unmarked) was 6.07%; that for `COc1ccc(CN(C)C(=O)c2oc3ccccc3c2CSC)cc1F` was 18.3%.
The value for `O=[N+]([O-])c1ccc(Nc2ccc(F)cc2)nc1` was -11.3%; that for `O=C(COCc1cc(-c2ccc3c(c2)OCO3)on1)N1CCN(c2cccc(C(F)(F)F)c2)CC1` was 18.5%; that for `O=c1[nH]ncc(N2CCN(Cc3ccccc3)CC2)c1Cl` was 8.85%.
Then `CC(/C=C/c1ccco1)=N/NC(=O)c1ccc(C)nc1`, with 12.7%; and `Cc1cc(C)c(S(=O)(=O)c2ccccc2)c(OC(=O)c2ccc(Cl)cc2Cl)n1`, with 11.1%.
Regarding `CCN(CC)S(=O)(=O)N1CCC(C(=O)NC2CCCc3ccccc32)CC1` (centres unmarked), the “hERG current change (%, negative = inhibition) at 1uM” value was found to be 1.74%.
On to `CCn1c(CNC(=O)COc2ccc(C(C)C)cc2)nnc1SCC(=O)Nc1cc(F)ccc1C`, for which the “hERG current change (%, negative = inhibition) at 1uM” value is -23.6%.
Then `O=C(Cn1c(-c2cscn2)nc2ccccc21)Nc1ccc(Cl)cc1`, with 6.9%; and `CN(CCOC(=O)c1ccccc1)Cc1ccccc1.Cl`, with 12.4%.
Then `Cc1c(C(=N)C(C#N)C#N)c(=N)oc2c1ccc1ccccc12`, with 5.12%; and `Oc1c(C(c2cccs2)N2CCC3(CC2)OCCO3)sc2ncnn12` (centres unmarked), with 14.6%; and `Cc1cccc(NC(=O)CN2CCN(CC(=O)NCc3ccc(Cl)cc3Cl)CC2)c1C`, with 4.8%.
Then `Cc1ccc(C(=O)O/N=C(\c2ccccc2)c2ccncc2)cc1`, with 8.45%; and `CCCCCNC(=O)C(=O)C1C(=O)Nc2ccccc21` (centres unmarked), with 14.7%.
As to `Cc1ccc(N(CC(O)Cn2c3ccccc3c3ccccc32)S(C)(=O)=O)c(C)c1` (centres unmarked), the “hERG current change (%, negative = inhibition) at 1uM” value is on record as -4.23%.
Then `COc1ncnc2c1oc1nc(C)c3c(c12)CC(C)(C)OC3`, with 4.1%; and `CCN(Cc1ccncc1)Cc1nc(CC2CC2)no1`, with 14.3%.
As to `COc1ccccc1OCC(=O)NNC(=O)CSC(=S)N1CCCC1`, the “hERG current change (%, negative = inhibition) at 1uM” value amounted to 13.4%.
Then `Cn1c(SCc2ccccc2)nnc1-c1ccco1`, with 10.9%; and `CCN(c1ccccc1)S(=O)(=O)c1cc(OC)ccc1OC`, with 1.48%; and `COc1ccccc1/C=C/C(=O)NC(=S)N1CCN(C)CC1`, with 8.3%.
The value for `O=C(Cc1ccccc1[N+](=O)[O-])Nc1ccccc1C(=O)N1CCOCC1` was 10.6%.
The value for `CCOc1ccc(CCN2C(=O)C3C4C=CC(C4)C3C2=O)cc1OCC` (centres unmarked) was 3.44%.
For the compound `O=C(C1=C[C@@H](c2ccc(Br)cc2)C[C@@H](OCCCCO)O1)N1CCN(Cc2ccc3c(c2)OCO3)CC1`, the “hERG current change (%, negative = inhibition) at 1uM” value is 1.85%.
Then `Nc1cc(N)nc(SCC(=O)NCC2CCCO2)n1` (centres unmarked), with -4.58%; and `O=[N+]([O-])c1ccc(S(=O)(=O)c2cccc(C(F)(F)F)c2)nc1`, with 7.76%; and `O=C(CSc1ccc(-c2cccc([N+](=O)[O-])c2)nn1)N1CCCCCC1`, with -2.31%.
For `COc1ccc(C)cc1NC(=O)c1ccc(NS(=O)(=O)c2cccc3cccnc23)cc1`, the “hERG current change (%, negative = inhibition) at 1uM” value came out at 13.5%.
Then `Cc1ccc(C(=O)c2sc3nsc(C)c3c2N)cc1`, with 12%; and `COc1ccc(-c2csc(C3=C(O)CN(CCCN4CCCC4=O)C3=N)n2)cc1OC`, with 5.49%.
Then `N#Cc1c(N)nc2c(c1-c1ccc3c(c1)OCO3)CCc1ccccc1-2`, with 28.5%; and `COc1ccccc1C1=CC(=O)C[C@H](c2ccc(Cl)cc2)C1`, with -1.36%; and `O=C(Nc1ccnn1C1CCN(C(=O)c2cccc(Cl)c2)CC1)C1CCOC1` (centres unmarked), with 5.85%.
Then `Cc1ccc(S(=O)(=O)N2CCOCC2)cc1NC(=O)COC(=O)c1cc(=O)c2ccccc2o1`, with 11.3%.
Take `COc1ccc(OCC(O)COc2ccc(OC)cc2)cc1`: the “hERG current change (%, negative = inhibition) at 1uM” value was found to be 5.22%.
The value for `c1ccc(-n2nnc3cnccc32)cc1` was 7.25%; that for `O=C(CCc1ccccc1)NC(=S)Nc1cccc(Br)c1` was 16.2%; that for `Cc1cc(=O)oc2cc(NC(=S)NCc3cccnc3)ccc12` was 11.5%.
Then `O=C(NC1CCCCC1)C(c1cccnc1)N(C(=O)CCl)c1cccc(Cl)c1` (centres unmarked), with 5.06%; and `COc1cc(/C=N/NC(=O)CCN2CCN(C(c3ccccc3)c3ccccc3)CC2)ccc1O`, with -4.58%; and `COc1ccc(NC(=S)N(Cc2ccccn2)Cc2ccccc2Cl)cc1`, with 5%.
On to `O=C(O)C(=O)O.O=C(c1ccco1)N1CCN(Cc2cccc([N+](=O)[O-])c2)CC1`, for which the “hERG current change (%, negative = inhibition) at 1uM” value is reported as 1.3%.
Then `COc1ccc(NC(=O)CN(C)C(=O)c2c(-c3ccccc3Cl)noc2C)cc1`, with 14.3%.
For the compound `O=C(Nc1cccc(S(=O)(=O)N2CCCCC2)c1)c1cc([N+](=O)[O-])ccc1N1CCOCC1`, the “hERG current change (%, negative = inhibition) at 1uM” value is given as -40.5%.
On to `COc1ccc(-c2cc(C(=O)NCc3ccco3)c3ccccc3n2)cc1OC`, for which the “hERG current change (%, negative = inhibition) at 1uM” value is recorded as 2.33%.
With `Cc1ccc(C(=O)NC(=S)N2CCN(c3ccc([N+](=O)[O-])cc3)CC2)cc1`, the “hERG current change (%, negative = inhibition) at 1uM” value is on record as -5.54%.
For `CCO[C@H]1OC(C(=O)N2CCN(Cc3ccc4c(c3)OCO4)CC2)=C[C@@H](c2cn(C(C)=O)c3ccccc23)[C@@H]1CCCO`, the “hERG current change (%, negative = inhibition) at 1uM” value amounted to 0.802%.
The value for `Cc1onc(-c2ccccc2Cl)c1C(=O)NC(=S)NCCc1ccccc1` was -2.53%; that for `CCN=c1sc(C(=O)Nc2ccccc2)c(C)n1CC` was 17%; that for `O=C(CSC1=NS(=O)(=O)c2ccccc2N1)c1ccccc1` was 2.41%.
The value for `Nc1nc(Nc2ccccc2Br)nc(C(F)(F)F)n1` was 9.56%.
Then `CCC(=O)Nc1nc(C)c(Oc2ccccc2)c(=O)[nH]1`, with 5.01%; and `CC(=O)N(C(C)=O)c1cccc2c(N(C(C)=O)C(C)=O)cccc12`, with 8.26%; and `Cc1n[nH]c(=O)n1-c1ccc(OCc2ccccc2)cc1`, with 14.7%.
In the case of `COc1cc(C)c(Cl)cc1S(=O)(=O)NCCCN1CCOCC1`, the “hERG current change (%, negative = inhibition) at 1uM” value is given as -3.65%.
The value for `C/C(Cc1ccccc1)=N\NC(=O)CNC(=O)c1ccccc1O` was 2.86%; that for `C=CCc1c(C)nc(SCC(N)=O)[nH]c1=O` was 10.7%.
The value for `Cc1c(OCC(=O)NCc2ccncc2)ccc2c3c(c(=O)oc12)CCCC3` was 3.26%; that for `COc1ccc(OC)c(S(=O)(=O)N2CCN(C(=O)c3cc(C4CC4)nn3-c3ccccc3)CC2)c1` was 6.74%.
The value for `CCOC(=O)c1cn(CC(=O)Nc2ccc3c(c2)OCCO3)nn1` was 8.58%.
Regarding `CCc1cccc(C)c1NC(=S)N(Cc1cccnc1)Cc1ccco1`, the “hERG current change (%, negative = inhibition) at 1uM” value worked out at 1.42%.
On to `Cc1cc(C)c2nc(NC(=O)c3ccc4c(c3)OCO4)sc2c1`, for which the “hERG current change (%, negative = inhibition) at 1uM” value is 4.12%.
Regarding `CCOC(=O)c1[nH]c(C)c(C(=O)OCC(=O)N2CC(=O)Nc3ccccc32)c1C`, the “hERG current change (%, negative = inhibition) at 1uM” value is recorded as 8.63%.
The value for `Cc1nc(-c2ccc(Cl)cc2)sc1C1(C)CC(c2cccc(Cl)c2)=NO1` (centres unmarked) was 4.46%.
The value for `CC(C)C[C@H](NC(=O)N1CC(=O)Nc2ccccc21)C(=O)N1CCC[C@H]1C(=O)O` was 12.7%.
The value for `CCOc1ccccc1NC(=O)NC1(C(=O)NCc2cccnc2)CCCCC1` was 14.7%; that for `O=C(Cc1cccs1)NCCn1ccc2ccccc21` was 6.3%.
In the case of `CCC(Oc1ccccc1)C(=O)Nc1ccc(-c2nnc(-c3ccco3)o2)cc1` (centres unmarked), the “hERG current change (%, negative = inhibition) at 1uM” value is reported as -11.2%.
Then `O=S(=O)(NCc1ccc(F)cc1)c1ccc2c(c1)OCCO2`, with 8.92%; and `COc1ccccc1C(CNC(=O)CNC(=O)c1ccccc1Cl)N1CCCC1` (centres unmarked), with 11.8%.
Then `CN(CCc1ccccn1)S(=O)(=O)c1ccc2c3c(cccc13)C(=O)N2`, with 4.65%.
On to `Cc1ccc(S(=O)(=O)NC(CC(C)C)C(=O)N2CCOCCOCCOCC2)cc1` (centres unmarked), for which the “hERG current change (%, negative = inhibition) at 1uM” value is given as 14.4%.
For the compound `O=S(=O)(NCC(c1ccccc1)N1CCNCC1)c1ccc(Cl)cc1` (centres unmarked), the “hERG current change (%, negative = inhibition) at 1uM” value stood at 4.55%.
The value for `COc1cc2c(cc1OC)C(c1ccccc1O)N(C1CC(=O)N(c3ccccc3)C1=O)CC2` (centres unmarked) was 2.14%.

Values taken from paper PMC4336329 (PLoS ONE, 2015).
